# Measured values as given in the supplement of paper PMC8728848.
# This is one part of the list.
# B1: Epa6 (Candida glabrata), Q6DTM7_CANGB (protein)
# chain: MGSSHHHHHHSSGLVPRGSHMKDDYSSSLSNNNLGWTDPTEFPLGCSPNVTTPKNGLSMELYSYDYLKSGSNPCWDAAYLDPNYPRTGYKSHRLLAKVENVAGNINFYYHAPMGCTSLFDTLPQAYNYRTPLTMTNFTMLLYGYFKPKVTGYHTFTISADDLLFVNFGAGNAFDCCKRESSADDFGNYQAYAVWGSQTAKDDLTVHLDAGLYYPIRIFFNNRDNDGALSLTLKTESDPNPVIDFSDYFYSFDDTKDGCPGLVSYDTS
# Tests used:
# Experiment in all cases: glycan array binding signal (z-score within array); higher = stronger binding
# Details in all cases: glycan notation: IUPAC condensed, linker removed
# [1] = molecular target: Fuc(a1-2)[Gal(a1-3)]Gal(b1-4)[Fuc(a1-3)]GlcNAc(b1-3)GalNAc
# Outline: (§1)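 From the Consortium for Functional Glycomics database, 3228 arrays were curated, keeping only those whose protein sequence was available. Binding is given as a within-array Z-score averaged across arrays sharing a protein sequence and across linkers. Negative Z-scores can be read as non-binding.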
# [2] = molecular target: Fuc(a1-2)[Gal(a1-4)]Gal(b1-4)GlcNAc
# Outline: as §1
# [3] = molecular target: Fuc(a1-2)[GalNAc(a1-3)]Gal
# Outline: as §1
# [4] = molecular target: Fuc(a1-2)[GalNAc(a1-3)]Gal(b1-3)GalNAc(a1-3)[Fuc(a1-2)]Gal(b1-4)GlcNAc
# Outline: as §1
# [5] = molecular target: Fuc(a1-2)[GalNAc(a1-3)]Gal(b1-3)GalNAc(b1-3)Gal(a1-4)Gal(b1-4)Glc
# Outline: as §1
# [6] = molecular target: Fuc(a1-2)[GalNAc(a1-3)]Gal(b1-3)GlcNAc
# Outline: as §1
# [7] = molecular target: Fuc(a1-2)[GalNAc(a1-3)]Gal(b1-3)GlcNAc(b1-2)Man(a1-3)[Fuc(a1-2)[GalNAc(a1-3)]Gal(b1-3)GlcNAc(b1-2)Man(a1-6)]Man(b1-4)GlcNAc(b1-4)GlcNAc
# Outline: as §1
# [8] = molecular target: Fuc(a1-2)[GalNAc(a1-3)]Gal(b1-3)GlcNAc(b1-2)Man(a1-3)[Fuc(a1-2)[GalNAc(a1-3)]Gal(b1-3)GlcNAc(b1-2)Man(a1-6)]Man(b1-4)GlcNAc(b1-4)[Fuc(a1-6)]GlcNAc
# Outline: as §1
# [9] = molecular target: Fuc(a1-2)[GalNAc(a1-3)]Gal(b1-3)GlcNAc(b1-3)GalNAc
# Outline: as §1
# [10] = molecular target: Fuc(a1-2)[GalNAc(a1-3)]Gal(b1-3)GlcNAc(b1-6)GalNAc
# Outline: as §1
# [11] = molecular target: Fuc(a1-2)[GalNAc(a1-3)]Gal(b1-4)Glc
# Outline: as §1
# [12] = molecular target: Fuc(a1-2)[GalNAc(a1-3)]Gal(b1-4)GlcNAc
# Outline: as §1
# [13] = molecular target: Fuc(a1-2)[GalNAc(a1-3)]Gal(b1-4)GlcNAc(b1-2)Man
# Outline: as §1
# [14] = molecular target: Fuc(a1-2)[GalNAc(a1-3)]Gal(b1-4)GlcNAc(b1-2)Man(a1-3)[Fuc(a1-2)[GalNAc(a1-3)]Gal(b1-4)GlcNAc(b1-2)Man(a1-6)]Man(b1-4)GlcNAc(b1-4)GlcNAc
# Outline: as §1
# [15] = molecular target: Fuc(a1-2)[GalNAc(a1-3)]Gal(b1-4)GlcNAc(b1-2)Man(a1-3)[Fuc(a1-2)[GalNAc(a1-3)]Gal(b1-4)GlcNAc(b1-2)Man(a1-6)]Man(b1-4)GlcNAc(b1-4)[Fuc(a1-6)]GlcNAc
# Outline: as §1
# [16] = molecular target: Fuc(a1-2)[GalNAc(a1-3)]Gal(b1-4)GlcNAc(b1-3)Gal(b1-4)GlcNAc
# Outline: as §1
# [17] = molecular target: Fuc(a1-2)[GalNAc(a1-3)]Gal(b1-4)GlcNAc(b1-3)Gal(b1-4)GlcNAc(b1-3)Gal(b1-4)GlcNAc
# Outline: as §1
# [18] = molecular target: Fuc(a1-2)[GalNAc(a1-3)]Gal(b1-4)GlcNAc(b1-3)GalNAc
# Outline: as §1
# [19] = molecular target: Fuc(a1-2)[GalNAc(a1-3)]Gal(b1-4)GlcNAc(b1-3)[Fuc(a1-2)[GalNAc(a1-3)]Gal(b1-4)GlcNAc(b1-6)]GalNAc
# Outline: as §1
# [20] = molecular target: Fuc(a1-2)[GalNAc(a1-3)]Gal(b1-4)GlcNAc(b1-6)GalNAc
# Outline: as §1
# [21] = molecular target: Fuc(a1-2)[GalNAc(a1-3)]Gal(b1-4)[Fuc(a1-3)]GlcNAc
# Outline: as §1
# [22] = molecular target: Fuc(a1-2)[GalNAc(a1-3)]Gal(b1-4)[Fuc(a1-3)]GlcNAc(b1-3)GalNAc
# Outline: as §1
# [23] = molecular target: Fuc(a1-2)[GalNAc(a1-4)]Gal(b1-4)GlcNAc
# Outline: as §1
# [24] = molecular target: Fuc(a1-2)[GalNAc(b1-3)]Gal
# Outline: as §1
# [25] = molecular target: Fuc(a1-3)GlcNAc
# Outline: as §1
# [26] = molecular target: Fuc(a1-3)[Gal(b1-4)]Glc6S
# Outline: as §1
# [27] = molecular target: Fuc(a1-3)[Gal(b1-4)]GlcNAc
# Outline: as §1
# [28] = molecular target: Fuc(a1-3)[Gal(b1-4)]GlcNAc(b1-2)Man
# Outline: as §1
# [29] = molecular target: Fuc(a1-3)[Gal(b1-4)]GlcNAc(b1-2)Man(a1-3)[Fuc(a1-3)[Gal(b1-4)]GlcNAc(b1-2)Man(a1-6)]Man(b1-4)GlcNAc(b1-4)GlcNAc
# Outline: as §1
# [30] = molecular target: Fuc(a1-3)[Gal(b1-4)]GlcNAc(b1-2)Man(a1-3)[Fuc(a1-3)[Gal(b1-4)]GlcNAc(b1-2)Man(a1-6)]Man(b1-4)GlcNAc(b1-4)[Fuc(a1-6)]GlcNAc
# Outline: as §1
# [31] = molecular target: Fuc(a1-3)[Gal(b1-4)]GlcNAc(b1-3)Gal(b1-3)[Fuc(a1-4)]GlcNAc
# Outline: as §1
# [32] = molecular target: Fuc(a1-3)[Gal(b1-4)]GlcNAc(b1-3)Gal(b1-4)[Fuc(a1-3)]GlcNAc
# Outline: as §1
# [33] = molecular target: Fuc(a1-3)[Gal(b1-4)]GlcNAc(b1-3)Gal(b1-4)[Fuc(a1-3)]GlcNAc(b1-3)Gal(b1-4)[Fuc(a1-3)]GlcNAc
# Outline: as §1
# [34] = molecular target: Fuc(a1-3)[Gal(b1-4)]GlcNAc(b1-3)GalNAc
# Outline: as §1
# [35] = molecular target: Fuc(a1-3)[Gal(b1-4)]GlcNAc(b1-6)GalNAc
# Outline: as §1
# [36] = molecular target: Fuc(a1-3)[Gal(b1-4)]GlcNAc(b1-6)[Gal(b1-3)GlcNAc(b1-3)]Gal(b1-4)Glc
# Outline: as §1
# [37] = molecular target: Fuc(a1-3)[Gal(b1-4)]GlcNAc6S
# Outline: as §1
# [38] = molecular target: Fuc(a1-3)[Gal3S(b1-4)]Glc
# Outline: as §1
binder,measurement,setting,value
B1,glycan array binding signal (z-score),[1],-0.12
same,glycan array binding signal (z-score),[2],2.64
same,glycan array binding signal (z-score),[3],-0.314
same,glycan array binding signal (z-score),[4],-0.139
same,glycan array binding signal (z-score),[5],-0.303
same,glycan array binding signal (z-score),[6],-0.294
same,glycan array binding signal (z-score),[7],-0.297
same,glycan array binding signal (z-score),[8],-0.329
same,glycan array binding signal (z-score),[9],-0.163
same,glycan array binding signal (z-score),[10],-0.273
same,glycan array binding signal (z-score),[11],-0.298
same,glycan array binding signal (z-score),[12],-0.298
same,glycan array binding signal (z-score),[13],-0.35
same,glycan array binding signal (z-score),[14],-0.336
same,glycan array binding signal (z-score),[15],-0.27
same,glycan array binding signal (z-score),[16],-0.296
same,glycan array binding signal (z-score),[17],-0.265
same,glycan array binding signal (z-score),[18],-0.306
same,glycan array binding signal (z-score),[19],-0.239
same,glycan array binding signal (z-score),[20],-0.291
same,glycan array binding signal (z-score),[21],-0.219
same,glycan array binding signal (z-score),[22],0.422
same,glycan array binding signal (z-score),[23],-0.32
same,glycan array binding signal (z-score),[24],-0.337
same,glycan array binding signal (z-score),[25],-0.304
same,glycan array binding signal (z-score),[26],-0.259
same,glycan array binding signal (z-score),[27],-0.287
same,glycan array binding signal (z-score),[28],-0.247
same,glycan array binding signal (z-score),[29],-0.291
same,glycan array binding signal (z-score),[30],-0.206
same,glycan array binding signal (z-score),[31],-0.302
same,glycan array binding signal (z-score),[32],-0.271
same,glycan array binding signal (z-score),[33],-0.265
same,glycan array binding signal (z-score),[34],-0.194
same,glycan array binding signal (z-score),[35],-0.113
same,glycan array binding signal (z-score),[36],-0.178
same,glycan array binding signal (z-score),[37],-0.255
same,glycan array binding signal (z-score),[38],-0.267
